In the supplement of paper PMC10126150:
Values marked as one replicate rest on one cluster of the flow cell; about a third of the high ones do not repeat.

System: ATP
Test: switch fluorescence ratio, 500 uM ATP over buffer (Cy3 cluster intensity, sum of 5 cycles each) (fold (ratio)); higher = stronger signal-on switching upon ATP binding; sequences stand for … in TCGTCGGCAGCGTCAGATGTGTATAAGAGACAGTTTTTTTTTTTTTTTTTTTTTTTTT…TC
Details: aptamer strand: ATP DNA aptamer (quencher-CACCTGGGGGAGTATTGCGGAGGAAGG + anchor), 100 nM annealed; ATP concentration: 500 uM; one replicate
In short: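 Exposure to 500 uM ATP lasted 15 min at 22 °C before imaging, and a selection-buffer image was taken beforehand, for Cy3-labelled switching-strand clusters on a modified Illumina MiSeq flow-cell annealed to 100 nM quencher-labelled ATP aptamer. Five buffer/ATP cycles were run with NaOH stripping and re-annealing between them. The fluorescence ratio per cluster is summed target-cycle over summed buffer-cycle Cy3 intensity, averaged per switch-domain sequence. Clusters outside 100-1000 RFU were excluded.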

Sequence | switch fluorescence ratio
CTAGCATTAT | 1.47
CCCCCGTACG | 1.59
ATGATTAGTG | 0.989
GAAGGGGGCG | 1.03
TTGGCGCACG | 0.991
GGTCATGAAA | 0.997
CATGCTGAGG | 0.979
CGCAACGCGC | 1.05
TCGTGCTGTG | 0.988
TACTTCGGTA | 1.02
TGGAATAACT | 1.05
TTTCATAGGT | 1.05
ACACCGTCAT | 1.11
GTCGTACAGC | 1.05
CGAGTGGGAG | 0.949
TGTGACGAAT | 0.973
GCGATTCCT | 1.02
ACAGGCAGGG | 0.991
ATGCCTCATG | 0.99
CTTGAACCAT | 0.987
CCACTTCACG | 1.4
TGTTTTTGAC | 0.974
TCGGGTCCCT | 0.991
GCTTCAATG | 1
GATGTCTACG | 1.01
ACGGAGATTG | 1.03

Sequence | switch fluorescence ratio
ATTTTTGCA | 1.01
TGTAAAAGTT | 1.02
ACGTTAATAT | 2.32
CGTCGTGCGG | 0.963
GGCGGCATTT | 1.15
TAAGAGATAT | 0.971
ACTGGTCTTA | 1.03
ATGCGACCCT | 1.31
AGGTGGCCGC | 0.989
AAGCTTCACG | 1.05
TAAAAATCCA | 1.01
GTATGCTAGT | 0.987
TCTACCAGGC | 1.19
ATACGTTTGC | 1.07
TAACGGCCTG | 1.75
GTAGGAGGAT | 0.95
TGCTAGTAGC | 0.962
ATAGACTATT | 0.981
CAGGCTATGT | 0.976
CGTACTTGCT | 1
TGACAACCTG | 1.05
AACCGAGTCT | 1.17
GGGACGGTAT | 0.96
ATATCAAAGT | 0.982
ACGGGACGCG | 1.08
CTCTAGATCT | 1.14

Sequence | switch fluorescence ratio
AATGTGCGGA | 1.02
GCCTGACACG | 1.12
ATGGATACAA | 1.01
GGCGGCACCC | 1.04
TACGAACGGC | 1.65
TTAGATTAGC | 1.02
GGCTACTTGG | 1.01
GTGGAAACAT | 1.07
CTACTCTAT | 1.13
TAGATTACTT | 0.974
GGGAAGATAT | 0.937
ATTAGGCCCC | 1.04
CGAAGTTG | 1.02
ACGAGCGCCT | 1.04
GGCAACAGCA | 1.02
TGGGGTGACT | 0.986
TCGTGGGTTT | 0.999
ATTTTATGAT | 1.01
CCCAACATCG | 1.04
TACTTAGGTA | 1.03
TCTCCGATT | 1.68
TGGTTACTAG | 0.988
AATTTTGGGC | 0.969
TTAGGTCATA | 1.01
CATGAGGCAA | 2.08
CTTTAGGTAC | 1.94

Sequence | switch fluorescence ratio
AATATGGTTG | 1.03
AGACCTTAG | 1.03
CACATGGCGT | 0.998
CAGACATTAC | 1.6
CATTGTAACT | 1.04
TGGATTCTTG | 1.08
CGAGGATTCT | 0.971
CCCTTGAGCC | 1.1
GATACGAGTA | 1.37
TTGCCCTTGG | 1.13
GCAGAAAATG | 0.976
TTATTACTCA | 0.994
TCTGGTGACT | 1.1
GATGGCAAGC | 2.31
TCTCAAACAT | 1.07
TGGGCGAGG | 1.02
GTGGCTAGGT | 1.03
AGTAACCCTT | 1.11
ATGCACGTTA | 1.15
TACTAGCACG | 1.16
ATTCTCTGAG | 0.991
ATTCCACAGC | 1.86
CCGATAGTCT | 1.05
GACTATACTT | 1.23
GGTCCAGGCA | 0.992
TTGTTTTAT | 0.981

Sequence | switch fluorescence ratio
TCGTATGGCA | 1.04
TCAGGGTGTA | 1.59
AGGGTTTTGC | 0.977
CAGTAGGGG | 0.949
GCAAACCCGG | 1.08
AACCTTACTC | 2.54
ACACAGCCCG | 1.04
GGGCTAGGCC | 0.973
ATCCAAATGA | 1.02
GGTTGAGTAC | 1.09
CTCAATCAT | 0.986
TCTTTGCTGC | 1.16
GGCGCGCACA | 1
TTGCGTGGT | 1.03
TAATATAAAA | 0.997
CGAAAGATCA | 1.01
AACTGAGAAA | 0.971
GACACCACTT | 1.3
AGCAGCATAA | 1.31
GCTACGTCCA | 1.05
AAAAGAAGGG | 1.04
TCCAATGTAG | 1.1
TATGTTAAGA | 1
CATTTAATCA | 0.998
GAACATACAT | 1.27
GGGAAAGCGA | 1.02

Sequence | switch fluorescence ratio
AATACCTGTT | 0.971
ACCTCAATGG | 1
CCCTTACG | 2.64
GGATCAATGG | 0.97
ATACATAAGA | 1.04
AGAAATACTA | 1.15
GTTTAACATC | 1.05
AAACGCCGGG | 1.06
TCAAGAACTT | 1.02
GGCCTTGAGG | 0.988
TAGTAGGAG | 0.995
CGGGAATT | 1
TTTGTGGGCT | 1.12
TAATCGGTAC | 1.06
GAGGACCC | 1.08
CCGTGCACCT | 1.13
ATATCGATG | 0.981
AGAGCTTCT | 1.04
GGGTTGCGAA | 0.984
TTTATCACTC | 0.928
CTATAACCCG | 1.01
TACGCTGTT | 1
TAGTGTTTTG | 0.969
TAACCAGAAC | 1.14
ATGGCCTCTG | 0.978
AATGATAGGT | 1.03

Sequence | switch fluorescence ratio
TTGCGTATAA | 1.06
CAGCCCCGGA | 0.965
AATTCTCAGA | 0.976
AACTCGGGT | 1
CCCTCGAGGG | 0.989
GACGTCGAGC | 1.05
TTGCGAGGTA | 0.98
CACCCGCCTT | 1.03
AAATGCAT | 1
ACACACGTAT | 1.37
AGGTCGGTAA | 0.994
CCCCTTTTTT | 1.26
CCATTCTGCT | 1.01
ATCGTATGGG | 0.957
GATTGCCTCG | 0.966
ACGAAAGTAC | 1.26
GTAAGCGTCC | 1.1
GCGACTATTA | 1.01
ACAGACGTAA | 1.17
CGGGTTATAT | 0.974
ATAGTAACAG | 0.963
CCCTTT | 1.03
GATCGTCGCA | 1.05
CAGCTGACGG | 1.01
CCTTGGAGCC | 1.1
GACTCGCAAG | 1.23

Sequence | switch fluorescence ratio
GGAAAGGCAA | 1.09
GCTCGGTCAG | 1
CAGTACGTTA | 1.15
CCAGGGTTTG | 1.02
AATAATGAAC | 1.03
CCGCTCTGCG | 1.02
TCTTCTGCAA | 1.19
CGGCTCAGTA | 0.936
TTCAAATTCC | 1.06
GCTACAGGC | 1.01
TGGGTTCTAA | 1.05
CGAGTCTTTT | 0.996
CTGGGCGCTA | 1.01
GGGATTTCGG | 1
TCGGTTGTCA | 0.963
AAATTGCCGA | 1.01
TCAATGGTCA | 1.03
ATCAGTTAT | 0.95
TCGGTCGAC | 1
